Among all 310,000 compounds or so, about 14,000 (4.5%) showed an effect of 50% or more. The effect is printed as a negative number. The list shows a part of the results.
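Note: peak tail current of the secondary pulse compared with the same well before compound.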

The target in this test is human ether-à-go-go-related gene (hERG) potassium channel (human, UniProt Q12809). Description: primary screen, population patch clamp on CHO cells stably expressing hERG.
Sequence of human ether-à-go-go-related gene (hERG) potassium channel (Q12809 whole entry, looked up): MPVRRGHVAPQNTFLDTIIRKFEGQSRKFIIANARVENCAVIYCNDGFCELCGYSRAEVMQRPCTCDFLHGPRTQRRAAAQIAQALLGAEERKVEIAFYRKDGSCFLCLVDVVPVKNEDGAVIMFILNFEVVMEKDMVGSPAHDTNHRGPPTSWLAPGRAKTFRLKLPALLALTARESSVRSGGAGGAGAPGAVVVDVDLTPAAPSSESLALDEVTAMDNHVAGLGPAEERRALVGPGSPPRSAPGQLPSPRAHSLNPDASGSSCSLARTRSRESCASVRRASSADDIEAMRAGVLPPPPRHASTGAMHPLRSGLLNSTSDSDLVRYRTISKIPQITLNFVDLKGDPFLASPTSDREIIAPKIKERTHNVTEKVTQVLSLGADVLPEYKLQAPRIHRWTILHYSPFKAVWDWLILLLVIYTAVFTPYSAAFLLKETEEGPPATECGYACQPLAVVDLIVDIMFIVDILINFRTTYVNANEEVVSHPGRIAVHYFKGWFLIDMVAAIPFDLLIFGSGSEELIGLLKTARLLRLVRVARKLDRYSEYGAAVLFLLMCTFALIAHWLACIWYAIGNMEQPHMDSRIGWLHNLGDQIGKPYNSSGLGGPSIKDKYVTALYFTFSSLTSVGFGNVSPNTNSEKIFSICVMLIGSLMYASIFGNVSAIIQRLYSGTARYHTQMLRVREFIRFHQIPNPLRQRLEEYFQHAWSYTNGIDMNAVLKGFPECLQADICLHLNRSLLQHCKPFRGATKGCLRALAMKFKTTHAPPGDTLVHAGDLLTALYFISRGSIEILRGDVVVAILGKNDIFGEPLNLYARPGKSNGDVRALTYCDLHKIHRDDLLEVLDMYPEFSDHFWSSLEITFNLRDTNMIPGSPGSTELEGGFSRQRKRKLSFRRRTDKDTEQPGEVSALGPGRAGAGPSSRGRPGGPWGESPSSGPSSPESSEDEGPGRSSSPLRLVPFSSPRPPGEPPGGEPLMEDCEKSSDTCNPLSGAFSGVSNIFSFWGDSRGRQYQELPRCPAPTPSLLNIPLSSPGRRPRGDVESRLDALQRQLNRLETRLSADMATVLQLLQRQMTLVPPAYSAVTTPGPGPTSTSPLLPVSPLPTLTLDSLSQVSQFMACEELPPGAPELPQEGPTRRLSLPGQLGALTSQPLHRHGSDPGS
On to `Brc1ccccc1OCCOCCOc1cccc2cccnc12`, for which the “hERG current change (%, negative = inhibition) at 10uM” value is -18.3%.
In the case of `Cc1[nH]nc2c1C(C(C)c1ccccc1)C(C#N)=C(N)O2` (stereo not drawn) it was 2.3%; in that of `CC(C)(C)n1ncc2c(=O)n(CC(=O)NCCc3ccccc3)cnc21`, 1.39%.
The figure for `Cc1ccc(NC(=O)c2ccc(OC(=O)COc3cccc(Cl)c3)cc2)cc1` is 18%; for `Cc1ccc(C)n1-c1ncc(Br)cn1` it is 6.58%.
In the case of `CSCC[C@H](NC(=O)NCc1ccc(F)cc1)C(=O)O` it was 0.717%; in that of `CCc1cc2c(N3CCN(C)CC3)ncnc2s1.Cl`, -29%.
`CCOC(=O)N1CCN(C(c2ccccc2)c2sc3nc(C)nn3c2O)CC1` (stereo not drawn): the “hERG current change (%, negative = inhibition) at 10uM” value is given as -5.56%.
The figure for `CCOC(=O)c1sc(N(Cc2ccccc2)C(=O)COC(=O)c2ccc(O)cc2)nc1C` is 17.7%; for `C/C=C\C=C/C(=O)Nc1cccc(C2=NOC3(C2)C[C@@H](C(N)=O)N(C(=O)c2ccccc2)C3)c1` (stereo partly drawn) it is 11.6%.
In the case of `O=S1(=O)CCC(NC(=S)N2CCOCC2)C1` (stereo not drawn) it was 7.65%.
In the case of `O=C(c1ccccc1)c1ccccc1N=Cc1c(O)[nH]c(=O)[nH]c1=O` it was 16.9%; in that of `C/C(CC(=O)N1CCN(C=O)CC1)=N\NC(=O)c1ccc(Br)cc1`, 9.05%; in that of `O=C(CC(=O)N/N=C/c1ccc(C(=O)O)cc1)NCCc1ccccc1`, 22.9%.
Regarding `COCCOc1nc2c(c(=O)n(C)c(=O)n2C)n1Cc1cccc(OC)c1`, the “hERG current change (%, negative = inhibition) at 10uM” value is given as -12.8%.
The figure for `CC(=O)Nc1ccc(NC(=O)Cn2cnc3c(cnn3C(C)(C)C)c2=O)cc1` is 9.43%; for `COc1cc(/C=C(\C#N)C(N)=O)ccc1OS(=O)(=O)c1ccc(C)cc1` it is -37.8%; for `CC(C)NC(=O)COC(=O)/C=C/c1ccco1` it is 30.8%.
As for `CCO[C@H]1OC(C(=O)NCc2nc3ccccc3[nH]2)=C[C@@H](c2cn(C(C)=O)c3ccccc23)[C@@H]1CCCO`, the “hERG current change (%, negative = inhibition) at 10uM” value was -49.7%.
In the case of `Cc1nn(-c2ccc(F)cc2)c(-n2cccc2)c1C(=O)N1CCN(C(=O)c2ccco2)CC1` it was -25.2%; in that of `O=C(c1ccco1)N1N=C(c2ccc(Cl)cc2)CC1c1ccco1` (stereo not drawn), 15%.
`COc1ccccc1-c1c(C)nn2c(NCCN3CCCC3)cc(C)nc12`: the “hERG current change (%, negative = inhibition) at 10uM” value was -5.5%.
Regarding `COc1cc(/C=N/NP(=S)(c2ccccc2)c2ccccc2)ccc1O`, the “hERG current change (%, negative = inhibition) at 10uM” value was -6.45%.
In the case of `COc1cc(/C=C/C(=O)O)cc(S(=O)(=O)NCc2ccc3c(c2)OCO3)c1OC` it was 20.4%; in that of `Nc1ncc2[nH]cnc2n1`, 13.4%; in that of `CC(C)[C@H](NC(=O)N1CC(=O)Nc2ccccc21)C(=O)N[C@H](C(=O)O)c1ccccc1`, 12.5%.
The figure for `O=C(Nc1ccncc1)c1ccc(S(=O)(=O)Nc2ccccc2)cc1` is 1.96%; for `O=C(COc1ccc(F)cc1F)N1CCCCCCC1` it is 13.5%; for `Cc1c(C(=O)NCCN2CCCC(O)C2)oc2c(F)cccc12` (stereo not drawn) it is -1.78%.
The figure for `CCN(Cc1nc(-c2ccc(OC)cc2)no1)C(=O)c1ccc2c(c1)OCO2` is -30.7%; for `Cc1cccc(C(=O)NCCC(=O)NCc2ccccc2Cl)c1` it is -10.6%.
As to `O=C(CN1CCN(C(=O)C2CC2)CC1)Nc1cc(C(F)(F)F)cc(C(F)(F)F)c1`, the “hERG current change (%, negative = inhibition) at 10uM” value is given as -54.4%.
As for `CC(=O)O[C@@]12CO[C@@H]1C[C@H](OC1OCC(O)C(O)C1O)[C@@]1(C)C(=O)[C@H](O)C3=C(C)[C@@H](OC(=O)[C@H](O)[C@@H](NC(=O)c4ccccc4)c4ccccc4)C[C@@](O)([C@@H](OC(=O)c4ccccc4)C12)C3(C)C` (stereo partly drawn), the “hERG current change (%, negative = inhibition) at 10uM” value is on record as -7.05%.
In the case of `Cc1ccc(N2CC(C(=O)Oc3cccc(N4C(=O)CCC4=O)c3)CC2=O)cc1` (stereo not drawn) it was -9.12%.
The figure for `Cc1ccc(-n2nc3ccc(N)cc3n2)cc1C` is 11.8%.
In the case of `COc1ccc(CNC(=S)Nc2ccccc2-c2ccccc2)cc1` it was -5.74%.
As for `Cc1cccc(CSc2nnc(CCNC(=O)OC(C)(C)C)o2)c1`, the “hERG current change (%, negative = inhibition) at 10uM” value was -7.22%.
For `Cc1onc(-c2ccccc2)c1C(=O)N1CCN(S(=O)(=O)c2ccc(OC(F)(F)F)cc2)CC1`, the “hERG current change (%, negative = inhibition) at 10uM” value is -20.2%.
Turning to `Cc1cc2c3nonc3ccc2n1C`, the “hERG current change (%, negative = inhibition) at 10uM” value was -7.19%.
`COc1ccccc1C1C(C#N)=C(N)Oc2c1c(-c1ccccc1)nn2-c1ccccc1` (stereo not drawn): the “hERG current change (%, negative = inhibition) at 10uM” value is on record as 0.699%.
The figure for `CCN(CC(=O)Nc1ccc(NC(C)=O)cc1)CC(=O)Nc1ccccc1C(=O)c1ccccc1` is -46%; for `CCn1ccc(=O)c2cc3c(cc21)OCO3` it is 10.3%; for `COc1ccccc1C(=O)NCCC(=O)NNC(=O)c1ccccc1O` it is 17.1%.
The figure for `O=C(NCc1ccccc1Cl)C1(S(=O)(=O)c2ccc(Cl)cc2)CC1` is -4.86%.
For the compound `Cl.O=C(OCC1CCCN2CCCCC12)c1ccc2c(c1)OCO2` (stereo not drawn), the “hERG current change (%, negative = inhibition) at 10uM” value is reported as -22.8%.

The record behind these values is article PMC4336329 (PLoS ONE, 2015).
